The supplement of paper PMC3334620
Over roughly 33,000 sequences, “E-score (-0.5 to 0.5)” has its median near -0.016; the highest 2% begin near 0.32. The list shows a part of the results.

molecular target: T1, Stp1 (UniProt B3LFK1); test: PBM E-score (8-mer binding enrichment) (E-score (-0.5 to 0.5)); higher = stronger / more preferred TF binding; most listed sequences are background and not binding sites; settings: protein concentration: 200 nM; construct: GST-full length
T1 sequence: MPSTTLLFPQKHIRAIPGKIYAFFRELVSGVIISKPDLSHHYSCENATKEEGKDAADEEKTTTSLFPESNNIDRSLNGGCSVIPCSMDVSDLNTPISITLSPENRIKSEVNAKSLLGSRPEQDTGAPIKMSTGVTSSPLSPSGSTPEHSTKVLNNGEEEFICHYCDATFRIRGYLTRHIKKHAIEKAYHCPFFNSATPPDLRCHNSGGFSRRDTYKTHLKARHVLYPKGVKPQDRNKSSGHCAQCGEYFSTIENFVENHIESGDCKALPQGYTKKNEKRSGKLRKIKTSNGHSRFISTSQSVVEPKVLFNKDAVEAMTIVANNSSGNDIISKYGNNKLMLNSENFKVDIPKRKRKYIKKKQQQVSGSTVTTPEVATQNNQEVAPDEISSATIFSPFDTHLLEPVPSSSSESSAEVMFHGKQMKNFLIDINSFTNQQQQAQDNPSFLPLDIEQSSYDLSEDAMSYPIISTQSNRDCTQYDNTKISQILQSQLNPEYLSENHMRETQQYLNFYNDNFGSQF
Outline: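 Each ungapped eight-base word and its reverse complement, pooled, received an E-score from the Universal PBM Analysis Suite. Underlying scans, normalised with masliner, recorded fluorescent anti-GST bound to GST-tagged yeast transcription factors. These were applied at about 100-200 nM to universal all-10-mer Agilent arrays double-stranded by primer extension.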

| Sequence | PBM E-score |
| --- | --- |
| CTAGTACC | -0.0737 |
| ACGAGAAG | 0.00088 |
| GTAGGATA | -0.0706 |
| CAGTCCAA | -0.148 |
| ACACGAGA | -0.111 |
| ATGGGCCA | -0.135 |
| CGCCCGAC | 0.0372 |
| AATATAAC | 0.0318 |
| AAATGGTT | 0.0407 |
| ATTAACGC | 0.0428 |
| TCGCCAGA | -0.00297 |
| AATAAACC | 0.0804 |
| AGCGGACA | 0.02 |
| ACATAAAC | 0.129 |
| AAGTGTTA | 0.0084 |
| TACTACAA | 0.161 |
| CATACTCG | -0.0635 |
| AGACAGCA | -0.0751 |
| ACCGAAAG | -0.0529 |
| AAAAAAGA | 0.0563 |
| ACGTGATA | 0.0417 |
| AATTAGCA | 0.12 |
| TCACCGAA | -0.0434 |
| CTACTCGA | 0.0184 |
| GGGTGAAA | -0.139 |

| Sequence | PBM E-score |
| --- | --- |
| AGATTAAG | -0.0157 |
| AGGGTAGC | -0.243 |
| GGTGTCTA | 0.0155 |
| TGGCGCAA | 0.298 |
| GCCGTGAA | 0.361 |
| ATTAACTC | 0.189 |
| AGAGCACC | -0.0875 |
| AGTCGACG | 0.131 |
| AGCGAGTG | 0.0906 |
| AATGAAAG | 0.00618 |
| AAGAGTCA | -0.224 |
| ATAACACC | 0.0275 |
| GTGTGCTA | 0.0152 |
| TCAATACA | 0.0645 |
| GAGCGAAC | -0.183 |
| CGGTATGA | 0.0359 |
| GAGCGTCA | -0.0209 |
| ATATCTCG | -0.016 |
| CATGCGTC | -0.114 |
| AGCCGAGC | 0.108 |
| ATAAGCAG | -0.0682 |
| ACCCGGGC | -0.154 |
| ACTATACC | -0.017 |
| CGTACGGA | 0.302 |
| CCTAGAGG | -0.208 |

| Sequence | PBM E-score |
| --- | --- |
| AAGTTACT | 0.0281 |
| GTTGACCA | 0.0886 |
| CACCCCGA | -0.148 |
| AACGGGAC | -0.0599 |
| TGTTCTAA | 0.0932 |
| GCACGTCC | 0.135 |
| CGCGCGCA | 0.272 |
| ATCCTCGC | -0.136 |
| GCGGAAGC | -0.0335 |
| GCAATGAA | 0.256 |
| GTGATAGA | -0.0664 |
| AATAAGGA | 0.0737 |
| ATTTAAAG | 0.244 |
| AGTTGGCA | 0.0438 |
| ACTTCACT | -0.126 |
| GGCTTAGA | -0.0744 |
| AACTCCAG | -0.162 |
| CATTCCAC | 0.0151 |
| AACCATAG | -0.0596 |
| GGCAAGCA | -0.0635 |
| ACTGTGAC | -0.034 |
| CTGCTCAA | -0.145 |
| CCGCGATC | -0.00115 |
| CTGGGACC | -0.375 |
| AGCAAAAA | 0.0129 |

| Sequence | PBM E-score |
| --- | --- |
| ACACACGT | 0.0897 |
| TGGACTAA | -0.162 |
| TAACACGA | 0.179 |
| AGTCCTAA | -0.0539 |
| ATCCAAGG | 0.00917 |
| GGATGACA | -0.0998 |
| CTTAGTTA | 0.109 |
| ACAGTCGG | -0.0418 |
| AAGGTCAT | -0.252 |
| AAAAAAGT | 0.139 |
| CTGTAACA | -0.293 |
| CGGTGCCC | 0.273 |
| AATTGAGT | 0.118 |
| ATGGATTC | -0.0108 |
| AACCCCGG | -0.314 |
| ACCCCTGA | -0.212 |
| ACTCTGTG | -0.0819 |
| CCACATCA | -0.00698 |
| TCACGGCA | 0.401 |
| CCGAGGCG | 0.333 |
| CAATGTCA | 0.0949 |
| ACTATCGG | 0.0358 |
| CTTCCGTA | 0.163 |
| ACGTAATC | -0.169 |
| AGAGAAAA | 0.184 |

| Sequence | PBM E-score |
| --- | --- |
| GTATATAA | 0.168 |
| ATTGGACG | -0.153 |
| AGTGACGG | -0.0247 |
| ACTTTGCC | 0.19 |
| ACATATAT | 0.136 |
| ACGACGGC | 0.132 |
| CACTACGG | 0.221 |
| GTCAGTGA | -0.00107 |
| TCCGATCA | -0.0427 |
| AGCCAAGA | -0.0283 |
| AGTGTTTA | 0.0443 |
| CAGCTGCC | 0.119 |
| ATTTCGGC | 0.0486 |
| CCCTTTGC | 0.0587 |
| GGATTGCC | 0.0318 |
| ATTTAAAT | 0.282 |
| ACACGAGC | -0.0595 |
| ATGACTCG | -0.116 |
| AGATAAAG | 0.148 |
| AACTTAGC | 0.0585 |
| ACAATCCA | 0.121 |
| CATTCGCG | 0.125 |
| CGACGGGC | 0.111 |
| CTAACGGC | 0.313 |
| CAATTCAA | 0.101 |

| Sequence | PBM E-score |
| --- | --- |
| ACCTTAAT | -0.0695 |
| AATCGGGC | -0.112 |
| CAAGCATG | -0.0249 |
| CGGATTTA | 0.124 |
| CCAGCAAC | -0.0606 |
| AGAGGCAT | 0.242 |
| AGACATAC | -0.142 |
| GACAACTA | 0.014 |
| ATCGTAGC | 0.0207 |
| ACTCCGGC | 0.0708 |
| GATGCTAA | 0.147 |
| AAGCATAA | 0.08 |
| AATTTAGG | 0.119 |
| ACGGCGAC | 0.467 |
| AAAGAGAC | -0.114 |
| ATGCATCG | -0.0532 |
| GAATGTTA | 0.152 |
| AGCGTCCG | -0.155 |
| AGTGTGAA | 0.0344 |
| GCGATCAA | -0.0307 |
| GTCATGTA | -0.163 |
| GCACCCAA | 0.00321 |
| ATGGGTTG | -0.0322 |
| CTAAGCAG | -0.13 |
| TCAATCCA | -0.0386 |

| Sequence | PBM E-score |
| --- | --- |
| GATTGGCA | 0.113 |
| CGTAGGCC | 0.00246 |
| GCCCTCGA | -0.192 |
| AGCGTATC | 0.0498 |
| ACGAGCCT | -0.0868 |
| CTACCCTC | -0.276 |
| ACCAGCAA | 0.0546 |
| AGCTAGAC | -0.00755 |
| GGACTTAC | -0.147 |
| TCCGAGGA | -0.044 |
| CCCGTCTC | -0.187 |
| CCGGTCCG | -0.235 |
| ATGAGATA | 0.0924 |
| CCTCCTGA | -0.111 |
| GAATGGCC | -0.00301 |
| CTCCGGTC | -0.169 |
| CATCGAGC | 0.064 |
| CAGTCGTC | -0.211 |
| CATGTCGG | -0.112 |
| CAGCGTAG | -0.0991 |
| AAGGACCG | -0.117 |
| AGCGTCTC | -0.216 |
